# The whole screen tested about 420,000 compounds, of which about 50,000 (12%) were called active. Inconclusive means that the source gave no clear call. Such entries were picked first, then a sample of the others. Calls come from the whole dose curve; as a rule, active = well fitted inhibition curve with a large enough effect; inconclusive = small, poorly fitted or top-dose-only effect; inactive = flat fitted curve, though single readings scatter. No potency is given beside an inconclusive call; the fits are too rough.
# Assay: qHTS for Inhibitors of human tyrosyl-DNA phosphodiesterase 1 (TDP1): qHTS in cells in presence of CPT; note: nearly all actives have a fitted effect of over 55% in size
# Settings: chicken DT40 Tdp1-/-;hTDP1 cells + 20 nM CPT, ATP luminescence, 48 h; activity change, negative = growth inhibition: at 46.2 µM (top of the series) unless noted
# Outline: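 Chicken DT40 Tdp1-/- cells complemented with human TDP1, 400 cells/well, exposed to compounds plus 20 nM camptothecin for at least 48 h at 37 C; viability read as ATP content by CellTiter-Glo luminescence.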
# % is set by controls: 0 for no effect and ±100 for the full control effect; potency is the fitted concentration of half-maximal effect; tags give direction and shape of the fitted curve.
SMILES,Potency,"activity change, negative = growth inhibition"
COC(=O)c1cccc(C(=O)N2CCCC(Nc3ccc4c(c3)OCCO4)C2)c1 (stereo unspecified),inactive,
O=C(N/N=C/c1ccc(F)cc1)c1ccccc1,inactive,
CCOc1cc(-c2nnc(SCC(=O)NC3CCCC3)nc2-c2ccc(OC)c(OCC)c2)ccc1OC,"inconclusive [inhibitor, single point]",
COc1ccccc1NC(=O)CCn1c(=O)sc2ccccc21,inactive,
COC(=O)c1ccc(Sc2ccccn2)c([N+](=O)[O-])c1,inactive,
Cc1cc(N2CCN(C)CC2)nc2ccc(NC(=O)CCC(=O)NCCC3=CCCCC3)cc12,"inconclusive [inhibitor, single point]",
C=CCc1cccc2cc(C(=O)NC3=C(C#N)CCC3)c(=O)oc12,"inconclusive [inhibitor, partial curve]",
Cc1ccc(Cl)cc1-n1c(=O)c2sc3ccccc3c2n(Cc2ccccc2)c1=O,active: 23.1 µM,
Nn1cnnc1N/N=C/c1ccc(F)cc1,"inconclusive [inhibitor, single point]",
CCN1C(=O)/C(=C\c2ccncc2)SC1=S,inactive,
COCCC(=O)NNS(=O)(=O)c1ccc(Cl)cc1,inactive,
CCC(CO)Oc1cc(NCc2cccnc2)c2ncn(C(C)C)c2c1 (stereo unspecified),"inconclusive [inhibitor, single point]",
O=C1NN=C(c2ccc(Br)cc2)CC1c1ccc(Cl)cc1 (stereo unspecified),"inconclusive [inhibitor, single point]",
CCOc1ccc(NC(=O)CN(C)c2ccc(S(=O)(=O)N(C(C)C)C(C)C)cn2)cc1OCC,"inconclusive [inhibitor, single point]",
CCc1nc2c(OCCC3CCCCC3)cccn2c1N(C)C(=O)c1ccco1,"inconclusive [inhibitor, single point]",
COc1ccc([C@@H]2[C@@H]3C(=O)N(C(C)(C)C)C(=O)[C@@H]3[C@]3(C)C(=O)N(c4ccc(C(F)(F)F)cc4)C(=O)N23)cc1,"inconclusive [inhibitor, single point]",
Cc1ccc(CNC(=O)C2CCN(C(=O)c3cccc(Cl)c3)CC2)cc1,"inconclusive [inhibitor, single point]",
CC(C)N1CCC(C)(C(=O)Nc2cccc3c2CCCC3)C1 (stereo unspecified),inactive,
O=C(CSc1nccn1C1CCCC1)Nc1ccc(C(F)(F)F)cc1,"inconclusive [inhibitor, single point]",
O=C(NCCCCCCCCNC(=O)c1cccc2ccccc12)c1cccc2ccccc12,"inconclusive [inhibitor, partial curve, poor fit]",
Cc1ccc(S(=O)(=O)ON2C(=O)c3cccc4cccc(c34)C2=O)cc1,"inconclusive [inhibitor, single point]",
COc1ccc(NC(=O)CN(c2ccc([N+](=O)[O-])cc2)S(=O)(=O)c2ccccc2)c(OC)c1,"inconclusive [inhibitor, single point]",
Cc1cc(C)c(-c2cc(NC(=O)COC(=O)c3ccc(CO)cc3)n(-c3ccccc3)n2)cc1C,"inconclusive [inhibitor, single point]",
O=C(CCCc1cccs1)Nc1ccc2c(c1)OCO2,"inconclusive [inhibitor, single point]",

SMILES,Potency,"activity change, negative = growth inhibition"
COc1ccc(NC(=S)N2CCC(C(=O)c3ccc(OC)cc3)CC2)cc1,"inconclusive [inhibitor, partial curve]",
Cc1ccc(C)c(OCCC(=O)OCC(=O)NC(=O)NCc2ccccc2)c1,"inconclusive [inhibitor, partial curve, poor fit]",
CC(C)N1C(=O)C(=O)N(CC(=O)N(C)c2ccccc2)C1=O,inactive,
O=C(NCCCN1CCOCC1)c1c(O)c2cc(Br)cc(Br)c2[nH]c1=O,"inconclusive [inhibitor, single point]",
COc1ccc(NC(=O)C2CCN(S(=O)(=O)c3ccc4[nH]c5c(c4c3)CCCCC5)CC2)cc1,"inconclusive [inhibitor, partial curve]",
Cc1cc(Br)ccc1OCCCCNCCO,active: 23.1 µM,
O=C(/C=C/c1c(Cl)cccc1Cl)Nc1ccncc1,"inconclusive [inhibitor, single point]",
O=C1/C(=C\c2ccccc2Cl)SC(=S)N1CCC(=O)N1CCCc2ccccc21,active: 6.51 µM,
Cc1cccc(NC(=S)NC2CCCCC2)n1,active: 25.9 µM,
CCn1c(=O)c([N+](=O)[O-])c(NCCc2ccc(OC)c(OC)c2)c2ccccc21,"inconclusive [inhibitor, partial curve]",
O=C(c1ccccc1)c1ccc(C(=O)N2CCN(c3ccc(F)cc3)CC2)o1,"inconclusive [inhibitor, single point]",
COc1ccc(-c2oc3cc(OC)c(OC(C)=O)c(OC)c3c(=O)c2OC)cc1OC(C)=O,"inconclusive [inhibitor, partial curve, poor fit]",
COc1ccc(NC(=O)Nc2ccccc2C(N)=O)cc1OC,inactive,
COc1cc(-c2cc(OC)c(O)c(OC)c2)cc(OC)c1O,active: 16.4 µM,
CCOc1ccc(CCNC(=O)COC(=O)c2nc(Cl)ccc2Cl)cc1OCC,inactive,
Cc1nnc(NC(=O)CSc2ncnc3scc(-c4ccccc4)c23)s1,"inconclusive [inhibitor, single point]",
CNC(=O)CSc1nccn1Cc1ccc(Cl)cc1,"inconclusive [inhibitor, single point]",
CSc1ccccc1NC(=O)c1cnc2scc(C)n2c1=O,"inconclusive [inhibitor, single point]",
Cc1cc(/C=c2/sc3nc4ccccc4n3c2=O)c(C)n1-c1ccccn1,"inconclusive [inhibitor, single point]",
CC(C)=CCc1c(-c2ccc(O)cc2O)oc2cc3c(c(O)c2c1=O)C=CC(C)(C)O3,active: 23.1 µM,
CCOc1ccccc1Nc1nnc(SCc2ccc(C(=O)OC)o2)s1,"inconclusive [inhibitor, single point]",
CCc1cccc2c(C(=O)Cn3nnc(-c4ccc(OC)c(OC)c4)n3)c[nH]c12,"inconclusive [inhibitor, single point]",
Cc1ccc(NC(=O)C2CCCN(c3ncnc4onc(-c5ccc(F)cc5)c34)C2)c(Cl)c1 (stereo unspecified),"inconclusive [inhibitor, single point]",
O=C(Nc1cccc2c1CCCC2)c1cc(C2CCCCN2C(=O)OCCF)on1 (stereo unspecified),active: 9.2 µM,

SMILES,Potency,"activity change, negative = growth inhibition"
CC(OC(=O)C1=COCCO1)C(=O)Nc1ccc(Cl)cn1 (stereo unspecified),inactive,
CCn1cc(Br)c(C(=O)Nc2ccc(F)c(Cl)c2)n1,"inconclusive [inhibitor, single point]",
O=C(Cc1c(F)cccc1Cl)NNC(=O)c1ccc(Br)s1,inactive,
O=C(COC(=O)c1ccccc1O)Nc1cccc(S(=O)(=O)NC2=NCCCCC2)c1,,inconclusive: -30.5% [inhibitor]
CCOC(=O)C1=C(C)NC(=O)NC1c1cn(-c2ccccc2)nc1-c1ccc(OCC)cc1 (stereo unspecified),"inconclusive [inhibitor, single point]",
CC12CCC(C(=O)Nc3cccc4ccccc34)(C1Br)C2(C)C (stereo unspecified),"inconclusive [inhibitor, single point]",
CCCCOc1cccc(C(=O)Nc2cccc(-c3nc4ncccc4o3)c2C)c1,"inconclusive [inhibitor, single point]",
O=[N+]([O-])c1cccc2[nH]cnc12,inactive,
COc1ccc(NCC(=O)N/N=C(\C)c2cc3ccccc3o2)cc1,"inconclusive [inhibitor, single point]",
Cc1cc(C(=O)NNC(=O)C(C)NS(=O)(=O)c2ccccc2F)c(C)o1 (stereo unspecified),inactive,
CCC(C)NC(=O)Cn1ccc2cc(S(=O)(=O)N3CCCCC3)ccc21 (stereo unspecified),"inconclusive [inhibitor, partial curve]",
Cc1ccc(NC(=O)C(C)SCc2nc3sc(C)c(C)c3c(=O)[nH]2)nc1 (stereo unspecified),inactive,
Fc1ccccc1COc1ccc(Br)cc1CNCc1cccnc1,"inconclusive [inhibitor, single point]",
CC(=O)c1ccc(N2CCN(c3ccnc4cc(Cl)ccc34)CC2)cc1,"inconclusive [inhibitor, full curve]",
COc1cc(CNCCCN2CCOCC2)c(Br)cc1OCC(=O)Nc1ccccc1C,"inconclusive [inhibitor, single point]",
O=C(COc1cccc(C(F)(F)F)c1)NCC(c1ccco1)N1CCCCC1 (stereo unspecified),"inconclusive [inhibitor, single point]",
NC(=O)c1ccc[n+](CC(=O)NCc2ccc(Cl)cc2)c1,inactive,
COc1ccc(CNC(=O)CCNC(=O)N2CC(=O)Nc3ccccc32)cc1,inactive,
CCOC(=O)C1CCN(C(=O)Nc2ccc3nccnc3c2)CC1,inactive,
CCOC(=O)N1CCN(C(=O)c2ccc(CSc3ccc(Cl)cc3)cc2)CC1,"inconclusive [inhibitor, partial curve]",
COc1cc2oc(=O)cc(-c3ccc(-c4ccc(F)c(Cl)c4)cc3)c2c(OC)c1OC,active: 18.4 µM,
Cc1ccc(/C=c2\sc3n(c2=O)CN(c2cccc(Br)c2)CN=3)o1,inactive,
CSc1ncc(C(=O)N2CCN(c3cc(C)ccc3C)CC2)c(C)n1,active: 20.6 µM,

# From PubChem BioAssay AID686979 (National Center for Advancing Translational Sciences (NCATS), 2013)
